# Assay results reported in paper PMC6212790.
# The other results are listed elsewhere or left out. At the low end of the ranking, values are background and their order means little.
# Molecular target: T1, GST-Rok (full length) (UniProt O34857)
# T1 sequence: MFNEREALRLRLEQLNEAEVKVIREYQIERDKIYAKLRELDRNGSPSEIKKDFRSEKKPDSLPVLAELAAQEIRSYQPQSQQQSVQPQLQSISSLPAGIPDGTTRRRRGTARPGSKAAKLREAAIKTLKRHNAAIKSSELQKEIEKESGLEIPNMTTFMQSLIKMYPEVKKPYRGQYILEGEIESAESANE
# Assay: protein binding microarray;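 further: rank score from −0.5 (least bound) to 0.5 (best bound)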
# Conditions: Rok is a gene silencer of Bacillus subtilis; high values mean tight binding; most listed sequences are background and not binding sites; double strand, one strand shown
row,Sequence,binding signal
1,CAGTGTAA,0.192 E-score
2,CCGCGTCG,0.0351 E-score
3,GCCGGTCA,0.0813 E-score
4,AACCCCGA,-0.267 E-score
5,ATACGAAA,0.194 E-score
6,AGGAGACC,-0.199 E-score
7,CACCATCG,-0.0961 E-score
8,GCAATCTA,0.361 E-score
9,ACGTGAAC,0.0387 E-score
10,AACAACAC,-0.114 E-score
11,CCTTAGCG,-0.0304 E-score
12,CCAATCCA,-0.00866 E-score
13,ACATGCAA,0.138 E-score
14,CGATTTAA,0.0615 E-score
15,CTTGGAAA,-0.0731 E-score
16,CAGCATCC,-0.17 E-score
17,CTACCCAG,0.0539 E-score
18,AGAAAAGA,0.262 E-score
19,CGCGGTTA,-0.0283 E-score
20,ACGCCCCA,-0.346 E-score
21,ATCAGACG,0.076 E-score
22,CTAAGCCC,-0.373 E-score
23,AGGACAGC,-0.219 E-score
24,CCCCGATC,-0.271 E-score
25,AGAATTAC,0.222 E-score

row,Sequence,binding signal
1,AGGTAATC,-0.0361 E-score
2,GTATGTGA,0.247 E-score
3,ATTGGATG,0.111 E-score
4,AGGTACTA,0.152 E-score
5,TAGTAAGA,0.306 E-score
6,GATTTGCA,-0.0304 E-score
7,CAGTGCGA,-0.0684 E-score
8,ACACCCCG,-0.197 E-score
9,AGCGCTTG,0.0188 E-score
10,CGAATCTA,0.305 E-score
11,ACCTAGCC,0.0355 E-score
12,TACGTCTA,0.0433 E-score
13,CCATGGCC,-0.252 E-score
14,AATTATAG,0.381 E-score
15,GGCGTCCA,-0.223 E-score
16,ATAGACGC,-0.0267 E-score
17,AAACAGGT,0.0116 E-score
18,ACCTCCGC,-0.101 E-score
19,ACAGTACA,0.0817 E-score
20,GTCTACAA,0.11 E-score
21,CAACGCGC,-0.108 E-score
22,AACATCCA,0.306 E-score
23,CTAACTGA,0.127 E-score
24,ACAGTAGA,0.305 E-score
25,GACTATCA,-0.0777 E-score

row,Sequence,binding signal
1,AGCAACTC,0.000962 E-score
2,CTGCTAGA,0.0802 E-score
3,GATATCGC,0.232 E-score
4,CGATGGAG,0.0372 E-score
5,CTGCGGTC,-0.201 E-score
6,GAGTCCCC,-0.303 E-score
7,AAAGCCCG,-0.297 E-score
8,ACACAGAA,0.193 E-score
9,AACCGCAT,-0.0448 E-score
10,GAGCCGGC,-0.361 E-score
11,GGTGGTGA,0.0128 E-score
12,ATCTGATG,0.149 E-score
13,TGTATTAA,0.241 E-score
14,AGGTTTTC,0.0454 E-score
15,AAGGCCCG,-0.355 E-score
16,CTGTTATA,0.308 E-score
17,AGTACTAG,0.385 E-score
18,CGCCAATA,-0.094 E-score
19,CCCCTAAC,-0.172 E-score
20,AACTCTCC,-0.0705 E-score
21,AAGGTACC,0.235 E-score
22,ATGTGTAG,0.222 E-score
23,AAGTATAA,0.142 E-score
24,ATGGGTGC,0.0432 E-score
25,ATTGGTCA,0.144 E-score

row,Sequence,binding signal
1,CCGCCCTC,-0.363 E-score
2,CTGTTTCA,-0.0347 E-score
3,ATTAAGGA,-0.0162 E-score
4,AGTTGAGC,-0.159 E-score
5,AGGCTTCC,-0.322 E-score
6,TCTTCCCA,-0.0364 E-score
7,ACCTCAAA,0.000394 E-score
8,AGCGAAAA,0.0776 E-score
9,CCAGCTAA,0.0629 E-score
10,AATCCTAA,0.024 E-score
11,AAGCAGTC,-0.138 E-score
12,GTCACGCA,-0.126 E-score
13,ATGCGAAG,0.129 E-score
14,AGATGTTA,0.172 E-score
15,GGCGCCAC,-0.328 E-score
16,AGGGGCCC,-0.462 E-score
17,CGGGAATC,-0.204 E-score
18,GCCTAATA,0.0372 E-score
19,GCCTTTTA,0.0531 E-score
20,ACGGCTTC,-0.102 E-score
21,ATCATCGG,-0.0858 E-score
22,CGCTCTCC,-0.28 E-score
23,ATTCAGCA,0.213 E-score
24,CATCGACG,0.0155 E-score
25,CCAGTGTA,0.0299 E-score

row,Sequence,binding signal
1,AAAGTAGC,0.223 E-score
2,ATTTAGAG,-0.0311 E-score
3,GTATTCAA,0.0317 E-score
4,CTGCGGCA,-0.188 E-score
5,GCAATTTA,0.279 E-score
6,CCCCTCGA,-0.316 E-score
7,GGAATGAC,-0.0154 E-score
8,CTTTCTGA,-0.206 E-score
9,CTGGAGGA,-0.293 E-score
10,ACGGTTAA,-0.0462 E-score
11,CGTCCGCC,-0.295 E-score
12,GCCGAAAA,0.103 E-score
13,AGAACTCG,-0.115 E-score
14,AGACCAAC,-0.293 E-score
15,CGAGCCAC,-0.119 E-score
16,CCGGATAG,-0.152 E-score
17,AGTCGTCC,-0.0515 E-score
18,AAATCTCG,0.144 E-score
19,TCATCGAA,-0.0642 E-score
20,CCGCCGAG,-0.146 E-score
21,CGGAGGTA,-0.126 E-score
22,AGTAGGTG,0.174 E-score
23,GCTGCGCC,-0.172 E-score
24,AACGCTAT,0.0873 E-score
25,CGTCACTC,-0.0177 E-score

row,Sequence,binding signal
1,AGGACAAG,-0.172 E-score
2,CGCCATAG,-0.165 E-score
3,AGAGCACT,-0.232 E-score
4,CTTACGGC,-0.153 E-score
5,CGCATCAC,-0.232 E-score
6,CTGTTCCA,-0.0439 E-score
7,AGATTGGG,-0.0439 E-score
8,AGGGAACT,-0.0535 E-score
9,AGACAGAG,0.0255 E-score
10,GCGACACA,-0.0486 E-score
11,ACATAGTG,0.0542 E-score
12,GTTGAATA,0.0162 E-score
13,AAAAGCCG,0.105 E-score
14,GCTCGCCA,-0.108 E-score
15,GATTAGAC,-0.0922 E-score
16,AAAACCTC,-0.00614 E-score
17,GACCGCCC,-0.384 E-score
18,CATAATTA,0.362 E-score
19,AGTCAATG,0.0519 E-score
20,AGAGTACA,0.142 E-score
21,ATTCATAA,0.239 E-score
22,CCGTAGCA,-0.00236 E-score
23,GGTCGGAC,-0.126 E-score
24,CCCTAGTA,0.252 E-score
25,CTGCTTAC,0.0646 E-score

row,Sequence,binding signal
1,ATAAGGGG,-0.275 E-score
2,ACGATGAC,-0.16 E-score
3,AAATCGTT,0.0442 E-score
4,GCGGCGAC,-0.216 E-score
5,GGGGCTAC,-0.226 E-score
6,ACCCACAA,-0.0366 E-score
7,AGACTCAT,-0.207 E-score
8,CTAATGAG,-0.0834 E-score
9,GGGAAAAA,-0.0456 E-score
10,CGAGGGCC,-0.381 E-score
11,TTGAACAA,0.0376 E-score
12,AGGTTCTA,0.134 E-score
13,GTAGCTAC,0.436 E-score
14,CTTACACA,0.068 E-score
15,AAGCTCCA,-0.0271 E-score
16,TACGGCTA,0.15 E-score
17,CGGTGCAC,-0.287 E-score
18,CGACGACG,-0.00922 E-score
19,TACAAGGA,-0.0186 E-score
20,CCCGGCGA,-0.269 E-score
21,AATATCGA,0.29 E-score
22,GATAGCGA,0.106 E-score
